This assay addresses T1, Recombinant human angiopoietin-2 (human, UniProt O15123 19-496).
T1 sequence (looked up): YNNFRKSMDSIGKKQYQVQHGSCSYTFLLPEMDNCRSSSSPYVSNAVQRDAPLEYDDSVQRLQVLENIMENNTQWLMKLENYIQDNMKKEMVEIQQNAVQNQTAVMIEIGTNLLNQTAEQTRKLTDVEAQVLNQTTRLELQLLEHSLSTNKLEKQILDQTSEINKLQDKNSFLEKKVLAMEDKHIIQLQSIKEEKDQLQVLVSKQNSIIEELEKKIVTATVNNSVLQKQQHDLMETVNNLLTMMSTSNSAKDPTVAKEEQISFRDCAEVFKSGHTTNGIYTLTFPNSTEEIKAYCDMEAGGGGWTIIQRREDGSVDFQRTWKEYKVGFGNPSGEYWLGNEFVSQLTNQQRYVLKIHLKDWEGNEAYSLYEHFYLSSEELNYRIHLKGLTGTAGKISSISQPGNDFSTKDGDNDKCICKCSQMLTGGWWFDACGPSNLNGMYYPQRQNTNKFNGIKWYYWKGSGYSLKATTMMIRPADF
Nature of the assay: ELISA. (In general: In an ELISA, binding on a coated surface is turned into a signal by an enzyme label.)

B1: Recombinant VWF A1 domain fused to Fc (Fc fusion)
chain: not shown
Broadly, the EC50 is the midpoint of the concentration-response curve. Turning to B1, the EC50 stood at 6.1 ± 1 nM.

For the origin of these results see PMC10579536 (Research and Practice in Thrombosis and Haemostasis, 2023).
